Test results taken from ChEMBL document CHEMBL4689842, “EUbOPEN Chemogenomics Library wave 1” (2021).
Certain results were filed several times, with different values. Only these are listed. There may be further records. The records of an entry are repeats in other runs, samples, wells, individuals or studies.

Experiments:
Type in all cases: toxicity, cell-based
U2OS = assay: Multiplex assay against U2OS; conditions: human
Procedure, shortened: (§1)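 At seeding, live cells were stained with Hoechst33342, BioTracker Green Microtubule Cytoskeleton Dye, MitoTracker Red and Annexin V Alexa Fluor 680. After compound addition they were imaged on a CQ1 microscope at 37°C and 5% CO2, and CellPathfinder machine-learning gating sorted them into Hoechst high-intensity objects or normal cells, with normal cells further split into healthy, pyknosed or fragmented nuclei and pyknosed cells into mitotic or apoptotic. Tubulin, mitochondrial-mass and membrane-permeability phenotypes are given as per cents of cells with healthy nuclei.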

Fibroblast = assay: Multiplex assay against human fibroblast; procedure, shortened: as §1
HEK-293T = assay: Multiplex assay against HEK293T; conditions: human; procedure, shortened: as §1;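 on Population Tubulin-Different-Phenotype (%): share of the cells with healthy nuclei that show this phenotype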
[1] = 12 h, 10 µM, compound concentration 10 uM, replicate 1
[2] = 12 h, 10 µM, compound concentration 10 uM, replicate 2
[3] = 24 h, 10 µM, compound concentration 10 uM, replicate 1
[4] = 24 h, 10 µM, compound concentration 10 uM, replicate 2
[5] = 12 h, 1 µM, compound concentration 1 uM, replicate 1
[6] = 12 h, 1 µM, compound concentration 1 uM, replicate 2
[7] = 24 h, 1 µM, compound concentration 1 uM, replicate 1
[8] = 24 h, 1 µM, compound concentration 1 uM, replicate 2

## CCn1c(=O)c(-c2ccc(Cl)cc2Cl)cc2cnc(Nc3ccc(N4CCNCC4)c(F)c3)nc21
U2OS; [1]
  Population Fragmented Nuclei (%): 7%, 25%, 17%
  Population Healthy Nuclei (%): 23%, 10%, 71%
  Population Hoechst High Intensity Objects (%): 68%, 54%, 7%
  Population Membrane Permeable-Phenotype (%): 69%, 100%, 8%
  Population Mitochondria Different-Phenotype (%): 38%, 87%, 15%
  Population Mitotic Cells (%): 2%, 10%, 61%
  Population Pyknosed Nuclei (%): 69%, 63%, 11%
  Population Tubulin-Different-Phenotype (%): 61%, 100%, 17%
U2OS; [2]
  Population Healthy Nuclei (%): 18%, 27%, 66%
  Population Hoechst High Intensity Objects (%): 50%, 59%, 19%
  Population Mitochondria Different-Phenotype (%): 85%, 35%, 21%
  Population Mitotic Cells (%): 0%, 11%, 53%
  Population Pyknosed Nuclei (%): 36%, 50%, 14%
  Population Tubulin-Different-Phenotype (%): 85%, 64%, 11%
U2OS; [3]
  Population Healthy Nuclei (%): 7%, 37%, 66%
  Population Hoechst High Intensity Objects (%): 59%, 65%, 10%
  Population Membrane Permeable-Phenotype (%): 100%, 95%, 12%
  Population Mitochondria Different-Phenotype (%): 80%, 68%, 22%
  Population Mitotic Cells (%): 12%, 8%, 39%
  Population Tubulin-Different-Phenotype (%): 100% and 21%
U2OS; [4]
  Population Hoechst High Intensity Objects (%): 44%, 74%, 19%
  Population Membrane Permeable-Phenotype (%): 92%, 93%, 22%
  Population Mitochondria Different-Phenotype (%): 92%, 66%, 27%
  Population Mitotic Cells (%): 0% and 46%
  Population Normal (%): 55%, 25%, 80%
Fibroblast; [1]
  Population Membrane Permeable-Phenotype (%): 15%, 5%, 2%
  Population Tubulin-Different-Phenotype (%): 26%, 42%, 9%
  Total Cell Count: 218, 844, 485
Fibroblast; [2]
  Population Apoptotic (%): 100%, 25%, 78%
  Population Membrane Permeable-Phenotype (%): 71%, 31%, 14%
  Population Mitochondria Different-Phenotype (%): 85%, 26%, 14%
  Population Mitotic Cells (%): 0%, 75%, 21%
  Population Pyknosed Nuclei (%): 36%, 7%, 19%
  Population Tubulin-Different-Phenotype (%): 85%, 31%, 28%
Fibroblast; [3]
  Population Membrane Permeable-Phenotype (%): 38%, 15%, 3%
Fibroblast; [4]
  Population Membrane Permeable-Phenotype (%): 92%, 25%, 18%
  Population Mitochondria Different-Phenotype (%): 92%, 25%, 0%
  Population Mitotic Cells (%): 0%, 28%, 26%
  Population Tubulin-Different-Phenotype (%): 84%, 8%, 12%
HEK-293T; [1]
  Population Apoptotic (%): 79%, 61%, 22%
  Population Healthy Nuclei (%): 4%, 31%, 54%
  Population Mitochondria Different-Phenotype (%): 40%, 36%, 10%
  Population Mitotic Cells (%): 20%, 38%, 77%
  Total Cell Count: 252, 812, 602
HEK-293T; [2]
  Population Apoptotic (%): 96%, 38%, 12%
  Population Fragmented Nuclei (%): 24%, 11%, 7%
  Population Healthy Nuclei (%): 16%, 53%, 84%
  Population Hoechst High Intensity Objects (%): 69%, 62%, 5%
  Population Membrane Permeable-Phenotype (%): 14%, 10%, 3%
  Population Mitochondria Different-Phenotype (%): 85%, 65%, 22%
  Population Mitotic Cells (%): 3%, 61%, 87%
  Population Normal (%): 30%, 37%, 94%
  Population Pyknosed Nuclei (%): 59%, 35%, 8%
  Total Cell Count: 286, 783, 1199
HEK-293T; [3]
  Population Apoptotic (%): 82%, 75%, 27%
  Population Healthy Nuclei (%): 5%, 46%, 62%
  Population Hoechst High Intensity Objects (%): 59%, 58%, 18%
  Population Membrane Permeable-Phenotype (%): 33%, 22%, 8%
  Population Mitochondria Different-Phenotype (%): 16%, 58%, 12%
  Population Mitotic Cells (%): 17%, 25%, 72%
  Population Pyknosed Nuclei (%): 56%, 19%, 17%
  Population Tubulin-Different-Phenotype (%): 16%, 61%, 50%
HEK-293T; [4]
  Population Apoptotic (%): 73%, 100%, 12%
  Population Hoechst High Intensity Objects (%): 60%, 66%, 6%
  Population Membrane Permeable-Phenotype (%): 13%, 5%, 4%
  Population Mitochondria Different-Phenotype (%): 76%, 91%, 11%
  Population Mitotic Cells (%): 26%, 0%, 87%
  Population Pyknosed Nuclei (%): 40%, 27%, 3%
  Total Cell Count: 824, 276, 1537

## CN(C)c1ncnc(-c2ccc3nc(Nc4cc(CN5CCN(C(=O)CC(F)(F)F)CC5)ccn4)[nH]c3c2)c1Cl [BAY-440]
U2OS; [1]
  Population Membrane Permeable-Phenotype (%): 49% and 14%
  Population Tubulin-Different-Phenotype (%): 92% and 11%
U2OS; [2]
  Population Apoptotic (%): 33% and 0%
  Population Membrane Permeable-Phenotype (%): 46% and 15%
  Population Tubulin-Different-Phenotype (%): 98% and 23%
U2OS; [3]
  Population Membrane Permeable-Phenotype (%): 37% and 7%
  Population Mitochondria Different-Phenotype (%): 42% and 11%
  Population Tubulin-Different-Phenotype (%): 87% and 15%
U2OS; [4]
  Population Apoptotic (%): 50% and 0%
  Population Membrane Permeable-Phenotype (%): 38% and 11%
  Population Tubulin-Different-Phenotype (%): 93% and 29%
Fibroblast; [1]
  Population Tubulin-Different-Phenotype (%): 58% and 9%
Fibroblast; [2]
  Population Mitotic Cells (%): 16% and 50%
Fibroblast; [3]
  Population Tubulin-Different-Phenotype (%): 66% and 7%
Fibroblast; [4]
  Population Mitochondria Different-Phenotype (%): 11% and 35%
  Population Tubulin-Different-Phenotype (%): 16% and 85%
HEK-293T; [1]
  Population Healthy Nuclei (%): 20% and 62%
  Population Membrane Permeable-Phenotype (%): 26% and 8%
  Population Tubulin-Different-Phenotype (%): 58% and 12%
HEK-293T; [2]
  Population Mitochondria Different-Phenotype (%): 48% and 13%
  Population Pyknosed Nuclei (%): 17% and 5%
  Population Tubulin-Different-Phenotype (%): 97% and 25%
HEK-293T; [3]
  Population Apoptotic (%): 33% and 10%
  Population Healthy Nuclei (%): 21% and 77%
  Population Hoechst High Intensity Objects (%): 21% and 5%
  Population Mitochondria Different-Phenotype (%): 43% and 5%
  Population Pyknosed Nuclei (%): 48% and 12%
HEK-293T; [4]
  Population Fragmented Nuclei (%): 2% and 18%
  Population Mitochondria Different-Phenotype (%): 62% and 3%
  Population Pyknosed Nuclei (%): 20% and 2%
  Population Tubulin-Different-Phenotype (%): 98% and 28%

## CNCc1ccc(-c2cc(-c3nc(-c4ccc(S(=O)(=O)C(C)C)cc4)cnc3N)on2)cc1 [BERZOSERTIB]
U2OS; [5]
  Population Fragmented Nuclei (%): 11% and 96%
  Population Normal (%): 68% and 18%
  Population Pyknosed Nuclei (%): 82% and 2%
U2OS; [6]
  Population Mitochondria Different-Phenotype (%): 35% and 0%
  Population Tubulin-Different-Phenotype (%): 14% and 77%
  Total Cell Count: 88 and 359
U2OS; [1]
  Population Fragmented Nuclei (%): 26% and 94%
  Population Pyknosed Nuclei (%): 68% and 5%
  Total Cell Count: 348 and 3110
U2OS; [2]
  Population Pyknosed Nuclei (%): 51% and 1%
  Population Tubulin-Different-Phenotype (%): 10% and 75%
  Total Cell Count: 293 and 3113
U2OS; [7]
  Population Fragmented Nuclei (%): 98% and 22%
  Population Mitochondria Different-Phenotype (%): 0% and 55%
  Population Pyknosed Nuclei (%): 0% and 66%
U2OS; [8]
  Population Healthy Nuclei (%): 20% and 1%
U2OS; [3]
  Population Mitochondria Different-Phenotype (%): 0% and 61%
  Total Cell Count: 3346 and 325
U2OS; [4]
  Population Membrane Permeable-Phenotype (%): 31% and 100%
  Population Pyknosed Nuclei (%): 45% and 0%
  Total Cell Count: 232 and 3493
Fibroblast; [5]
  Population Healthy Nuclei (%): 23% and 4%
  Population Normal (%): 36% and 0%
  Total Cell Count: 775 and 2624
Fibroblast; [6]
  Population Healthy Nuclei (%): 17% and 1%
  Population Mitotic Cells (%): 52% and 0%
  Population Normal (%): 31% and 4%
  Population Pyknosed Nuclei (%): 35% and 1%
  Total Cell Count: 382 and 3244
Fibroblast; [1]
  Population Normal (%): 35% and 0%
Fibroblast; [2]
  Population Healthy Nuclei (%): 24% and 4%
  Population Mitotic Cells (%): 51% and 0%
  Population Normal (%): 30% and 3%
  Population Pyknosed Nuclei (%): 21% and 2%
  Total Cell Count: 441 and 3099
Fibroblast; [7]
  Population Apoptotic (%): 0% and 42%
  Population Healthy Nuclei (%): 0% and 33%
  Population Normal (%): 0% and 32%
  Total Cell Count: 2900 and 801
Fibroblast; [8]
  Population Healthy Nuclei (%): 19% and 3%
  Population Mitotic Cells (%): 62% and 0%
  Population Normal (%): 30% and 3%
  Population Pyknosed Nuclei (%): 26% and 2%
  Total Cell Count: 391 and 3227
Fibroblast; [3]
  Population Apoptotic (%): 0% and 43%
  Population Healthy Nuclei (%): 0% and 30%
  Population Mitotic Cells (%): 0% and 56%
  Population Normal (%): 0% and 31%
  Population Pyknosed Nuclei (%): 0% and 50%
  Total Cell Count: 2858 and 947
Fibroblast; [4]
  Population Healthy Nuclei (%): 6% and 23%
  Population Membrane Permeable-Phenotype (%): 50% and 11%
  Population Normal (%): 2% and 25%
  Total Cell Count: 3125 and 436
HEK-293T; [5]
  Population Healthy Nuclei (%): 4% and 14%
  Population Pyknosed Nuclei (%): 1% and 5%
HEK-293T; [6]
  Population Healthy Nuclei (%): 2% and 21%
  Population Membrane Permeable-Phenotype (%): 18% and 66%
  Population Normal (%): 71% and 20%
  Population Pyknosed Nuclei (%): 2% and 12%
HEK-293T; [2]
  Population Apoptotic (%): 31% and 7%
  Population Healthy Nuclei (%): 2% and 30%
  Population Membrane Permeable-Phenotype (%): 0% and 31%
  Population Normal (%): 65% and 13%
  Population Pyknosed Nuclei (%): 2% and 13%
HEK-293T; [7]
  Population Healthy Nuclei (%): 5% and 26%
HEK-293T; [8]
  Population Apoptotic (%): 12% and 2%
  Population Fragmented Nuclei (%): 94% and 19%
  Population Healthy Nuclei (%): 2% and 49%
  Population Normal (%): 66% and 14%
HEK-293T; [3]
  Population Apoptotic (%): 59% and 11%
  Population Mitochondria Different-Phenotype (%): 10% and 2%
HEK-293T; [4]
  Population Fragmented Nuclei (%): 95% and 19%
  Population Healthy Nuclei (%): 1% and 61%
  Population Normal (%): 63% and 13%
  Population Pyknosed Nuclei (%): 2% and 19%
